# Results taken from PMC4336329 (PLoS ONE, 2015).
# Among all 310,000 compounds or so, about 14,000 (4.5%) showed an effect of 50% or more. Effects have a minus sign here. The list shows a part of the results.
# Molecular target: human ether-à-go-go-related gene (hERG) potassium channel (human, UniProt Q12809)
# Assay: primary screen, population patch clamp on CHO cells stably expressing hERG
# 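Further: peak tail current of the secondary pulse compared with the same well before compound.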
# Chain of human ether-à-go-go-related gene (hERG) potassium channel (Q12809 whole entry, looked up): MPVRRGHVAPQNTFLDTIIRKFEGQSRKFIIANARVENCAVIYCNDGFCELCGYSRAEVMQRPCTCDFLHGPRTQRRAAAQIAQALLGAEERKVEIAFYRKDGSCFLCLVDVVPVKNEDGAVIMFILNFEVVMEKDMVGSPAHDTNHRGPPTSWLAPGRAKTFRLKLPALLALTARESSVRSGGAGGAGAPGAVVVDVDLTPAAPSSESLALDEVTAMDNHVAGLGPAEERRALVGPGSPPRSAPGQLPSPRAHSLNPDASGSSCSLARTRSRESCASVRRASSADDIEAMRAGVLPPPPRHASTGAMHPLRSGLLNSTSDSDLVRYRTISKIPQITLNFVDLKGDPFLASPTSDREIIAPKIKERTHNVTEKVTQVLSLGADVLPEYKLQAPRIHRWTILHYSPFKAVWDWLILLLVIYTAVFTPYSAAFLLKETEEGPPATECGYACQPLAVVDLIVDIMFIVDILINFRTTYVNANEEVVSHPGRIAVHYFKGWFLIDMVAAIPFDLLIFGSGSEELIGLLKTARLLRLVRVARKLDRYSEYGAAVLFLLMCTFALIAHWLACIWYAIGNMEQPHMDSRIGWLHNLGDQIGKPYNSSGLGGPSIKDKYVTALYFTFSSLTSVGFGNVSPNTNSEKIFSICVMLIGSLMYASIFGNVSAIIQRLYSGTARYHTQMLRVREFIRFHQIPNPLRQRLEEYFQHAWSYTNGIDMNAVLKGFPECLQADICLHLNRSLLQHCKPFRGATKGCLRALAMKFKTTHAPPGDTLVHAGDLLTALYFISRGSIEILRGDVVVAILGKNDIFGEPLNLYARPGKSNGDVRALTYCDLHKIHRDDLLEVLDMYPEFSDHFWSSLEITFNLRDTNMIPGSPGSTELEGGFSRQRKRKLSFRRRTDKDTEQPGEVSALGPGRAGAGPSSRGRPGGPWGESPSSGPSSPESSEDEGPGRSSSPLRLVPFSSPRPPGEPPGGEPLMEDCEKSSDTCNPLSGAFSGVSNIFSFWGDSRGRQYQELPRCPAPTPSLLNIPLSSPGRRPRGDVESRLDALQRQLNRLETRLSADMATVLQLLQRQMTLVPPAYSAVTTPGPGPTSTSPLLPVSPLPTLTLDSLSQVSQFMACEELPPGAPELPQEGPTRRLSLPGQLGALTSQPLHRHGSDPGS
row,SMILES,"hERG current change (%, negative = inhibition) at 10uM [%]"
1,COCCn1c(SCC(=O)N2CCCc3ccccc32)nc2cccnc21,-16.5
2,CC(=O)Nc1ccc(OCCOc2ccc(/C=C3/C(=N)N4C=CSC4=NC3=O)cc2)cc1,-4.84
3,CCCOc1ccccc1/C=C1\SC(N)=NC1=O,9.65
4,O=C(c1cccnc1)N1CCN(S(=O)(=O)c2ccc(S(=O)(=O)N3CCCC3)cc2)CC1,9.65
5,O=C(CSCc1ccccc1)Nc1cccc(C(=O)Nc2ccccc2C(=O)O)c1,1.8
6,CC(=O)Nc1ccc(CN2CCCC(CCC(=O)NCc3ccccc3F)C2)cc1 (centres unmarked),-8.19
7,CCCCn1c(N)c(N(CC(C)C)C(=O)c2cnccn2)c(=O)[nH]c1=O,9.45
8,O=C(NCCc1ccc(Cl)cc1)Nc1ccc(Cl)cc1,15.9
9,CCOP(=O)(OCC)C(C#N)=C1SCN(c2ccccc2)CS1,13.2
10,O=C(Nc1nc2c(Cl)c(Cl)ccc2s1)C1CC1,3.25
11,CCCN(CCC)S(=O)(=O)c1ccc(C(=O)OCCN2C(=O)c3cccc4c(N5CCOCC5)ccc(c34)C2=O)cc1,0.513
12,Nc1ccc(C(=O)OCC(=O)Nc2ccc3c(c2)OCO3)cc1[N+](=O)[O-],5.04
13,CCN(CC)CC(=O)c1ccc(-c2ccccc2)cc1,-20.7
14,COC(=O)c1ccc(Cn2c(CN3CCOCC3)nc3ccccc3c2=O)o1,-5.56
15,COc1ccccc1Cn1nnc2c(=O)[nH]c(C3CCN(C(=O)c4ccc(F)cc4)CC3)nc21,-8.46
16,Cc1ccc2nc(NC(=O)C3CC3C)sc2c1 (centres unmarked),6.91
17,Cn1nc(C(F)(F)F)c(C(=O)Nc2cccc(Cl)c2)c1Cl,-5.35
18,CC1CCN(CC(=O)Nc2ccc(S(=O)(=O)N3C(C)CCCC3C)cc2)CC1 (centres unmarked),3.93
19,COCCn1c(SCC(=O)NC(=O)Cc2ccccc2)nc2ccccc2c1=O,-14.2

row,SMILES,"hERG current change (%, negative = inhibition) at 10uM [%]"
1,O=C1/C(=N/n2cnnc2)c2ccccc2N1Cc1ccccc1,-12.3
2,O=C(NCc1ccc2c(c1)OCO2)C1(S(=O)(=O)c2ccccc2)CC1,13.4
3,C=CCn1c(SCCOc2ccc(OC)cc2)nnc1C(NC(=O)c1ccc(OC)cc1)C(C)C (centres unmarked),-8.7
4,Cc1ccc(S(=O)(=O)N2CCCN(c3nc4cc(C)ccc4cc3C#N)CC2)cc1,3.44
5,O=C(NCc1ccco1)C1CC2CCC1C2 (centres unmarked),-5.56
6,COc1ccc(C(=O)Nc2ccc(S(=O)(=O)N3CCOCC3)cc2)cc1[N+](=O)[O-],9.11
7,COCCCNC(=O)/C=C/c1c(Cl)cccc1Cl,5.88
8,Clc1ccc(CNc2nc(N3CCOCC3)nc(N3CCOCC3)n2)cc1,-20
9,COc1ccc(C(=O)NCC(=O)N2CCC(C)CC2)cc1OC,8.89
10,COc1ccc(O)c(C(=O)c2cnn(C(=O)c3ccc(C)cc3)c2)c1,1.18
11,COc1ccccc1N(CC(=O)N1CCN(c2ccccc2)CC1)S(=O)(=O)c1ccc(C)cc1,17.5
12,CCOC(=O)C1C2c3ccccc3O[C@@]1(C)N=C1SCC(=O)N12 (some centres unmarked),3.9
13,COc1ccc(C(=O)C[n+]2cc(-c3ccc(OC)cc3)n3c2CCCC3)cc1.[Br-],-10.1
14,CCCCCC(=O)N1CCN(CCN=CC2=C(O)CC(c3cccs3)CC2=O)CC1 (centres unmarked),-106
15,CCOC(=O)c1c(NC(=O)Nc2ccc(C)cc2)sc2c1CCN(C)C2,-47.6
16,COc1cccc(NC(=O)CN(C)C(=O)c2cccc(NS(=O)(=O)c3ccccc3)c2)c1,-8.55
17,COc1cccc(NC(=S)/C(=C(\[O-])c2ccc([N+](=O)[O-])cc2)[n+]2ccccc2)c1,1.65
18,CC(=O)Nc1nc(C)nc(-c2ccccc2OC(C)=O)n1,-9
19,CCCCNc1nc2cccnc2s1,14.8

row,SMILES,"hERG current change (%, negative = inhibition) at 10uM [%]"
1,CC(=O)c1sc(N/N=C\c2ccc(Br)cc2)nc1C,4.97
2,O=S(=O)(Cc1noc(-c2ccccc2Cl)n1)c1ccccn1,-7.24
3,Cc1ccc(Cl)cc1NC(=S)N(CCN(C)C)C(C)c1ccccn1 (centres unmarked),-29.6
4,CCOC(=O)C1CCCN(C2CC(=O)N(c3ccc(C(C)C)cc3)C2=O)C1 (centres unmarked),-10
5,COc1ccc(NC(=O)c2ccccc2C(=O)N2CCCCC2)cc1,25.9
6,O=C(Cn1c(=O)sc2ccccc21)N1CCOCC1,8.47
7,CC(C)=NNc1nc2sc3c(c2c(=O)[nH]1)CC(C)(C)OC3,-13
8,COC(=O)NCC12CC3CC(C1)CC(CNC(=O)OC)(C3)C2,5
9,CC(=O)/C(=N\Nc1cccc(Cl)c1)Sc1cccc2cccnc12,-14.5
10,CCC(=O)NC(c1cc(Cl)c2cccnc2c1O)C(C)C (centres unmarked),-1.09
11,O=C(CN1C(=O)/C(=C\c2ccc(F)cc2)Oc2ccccc21)NCc1ccco1,12.4
12,O=C(O)COc1ccc(/C=N/n2c(COc3ccccc3)nc3ccccc3c2=O)cc1,8.57
13,Cc1cc(C)n2nc(C(=O)NC(C)(C)C)nc2n1,8.81
14,C=CCNS(=O)(=O)c1ccc(OCC(=O)OCC)cc1,-4.54
15,O=C(NCC1CCCO1)c1coc2nc3ccccc3nc12 (centres unmarked),-13.9
16,COc1ccc(-c2noc(N3CCC(C(=O)Nc4ccccc4Cl)CC3)n2)cc1,10.8
17,O=S(=O)(NCc1ccco1)c1cccc(S(=O)(=O)N2CCCCC2)c1,-32.2
18,CCc1ccccc1N(C(=O)c1snc(C(N)=O)c1N)C(C(=O)NCC1CCCO1)c1c[nH]c2ccccc12 (centres unmarked),1.69
